In PubChem BioAssay AID485313 (National Center for Advancing Translational Sciences (NCATS), 2010):
The whole screen tested about 320,000 compounds, of which about 7,600 (2.4%) were called active. Inconclusive means that the source gave no clear call. Such entries were picked first, then a sample of the others. Calls follow the shape of the dose curve; as a rule, active = well fitted activation curve with a large enough effect; inconclusive = small, poorly fitted or top-dose-only effect; inactive = no such curve, though single readings can be large or run the other way. No potency is given beside an inconclusive call; the fits are too rough.

Test: qHTS Assay for NPC1 Promoter Activators; also: nearly all actives have a fitted effect of over 60% in size;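 as to activation: reporter is driven by a mutant NPC1 promoter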
Details: Huh7 NPC1 promoter luciferase reporter, 24 h; series mostly up to 9.22 µM
How it was run: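 Huh7 reporter cells (NPC1 promoter driving luciferase) are dosed with compound for 24 h at 37 °C, 5% CO2; luciferase detection reagent is then added and luminescence measured after 10 min at ambient temperature.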
Potency is read from the fitted curve at half-maximal effect; tags tell the direction and shape of the fitted curve.

Question: With `COc1ccc(OCCOc2ccccc2[N+](=O)[O-])cc1` as the compound, how does the Potency read?
Answer: The Potency was inconclusive [activator, single point].

Question: For `COc1ccc(-c2[nH]ncc2/C=N\NC(=O)c2cccs2)cc1OC`, which Potency is on record?
Answer: Its Potency is “inactive”.

Question: For `COc1cccc(NC(=O)C(c2ccccc2)N2CCN(c3ccccn3)CC2)c1` (stereo not given), which Potency is on record?
Answer: Its Potency is “inactive”.

Question: For `COc1ccc(COc2cccnc2N)cc1`, which Potency is on record?
Answer: The Potency was inconclusive [activator, partial curve].

Question: With `COc1ccc(Cc2nnc(Nc3ccc(C)cc3)o2)cc1OC` as the compound, how does the Potency read?
Answer: Its Potency is “inactive”.

Question: For `Cc1nc(NC(=O)c2cncc(Br)c2)ccc1Br`, which Potency is on record?
Answer: The Potency was inconclusive [activator, partial curve].

Question: Which Potency does the source give for `Cc1ccc(NCCC(=O)c2cccs2)cc1` here?
Answer: The Potency was inconclusive [activator, partial curve].

Question: For `O=C(Nc1nc2ccccc2[nH]1)c1cccc(Br)c1`, which Potency is on record?
Answer: Its Potency is inconclusive [activator, single point].

Question: Which Potency does the source give for `CSc1ncccc1C(=O)OCc1ccccc1F` here?
Answer: The Potency was inconclusive [activator, single point].

Question: With `O=C(c1ccccc1)c1cc2ccccc2o1` as the compound, how does the Potency read?
Answer: The Potency was inconclusive [activator, single point].

Question: Which Potency does the source give for `CC(=O)Nc1ccc(NC(=O)C/C(C)=N/NC(=O)C(=O)Nc2ccc(C)c(Cl)c2)cc1` here?
Answer: The Potency was inconclusive [activator, single point].

Question: For `CCOc1ccccc1N(CC(=O)NC1CCCC1)C(=O)CNC(=O)c1cccs1`, which Potency is on record?
Answer: Its Potency is “inactive”.

Question: Which Potency does the source give for `c1ccc(-c2cc3c(-n4cccc4)ncnc3o2)cc1` here?
Answer: Its Potency is inconclusive [activator, single point].

Question: With `Cc1ccn(-c2ccc(NC(=O)c3cccs3)cc2)n1` as the compound, how does the Potency read?
Answer: Its Potency is active: 0.708 µM.

Question: For `N=c1cc(C2(O)CCCCC2)n2c(nc3ccccc32)s1`, which Potency is on record?
Answer: The Potency was active: 0.282 µM.

Question: Which Potency does the source give for `O=C(N/N=C/c1cc2c(cc1Br)OCO2)C1COc2ccccc2O1` (stereo not given) here?
Answer: The Potency was inconclusive [activator, single point].

Question: Which Potency does the source give for `Cc1ccc(NC(=O)c2cncc(Br)c2)c(O)c1` here?
Answer: Its Potency is inconclusive [activator, single point].

Question: Which Potency does the source give for `COC(=O)C1CCN(c2cc(Cl)nc(N)n2)CC1` here?
Answer: Its Potency is “inactive”.

Question: For `COc1cc2c(cc1NC(=O)Nc1ccc(F)cc1)oc1ccccc12`, which Potency is on record?
Answer: Its Potency is “inactive”.

Question: For `Cc1cccc(C(=O)Nc2cc(OCc3cccc(F)c3)c(Cl)cc2Cl)c1`, which Potency is on record?
Answer: The Potency was “inactive”.

Question: Which Potency does the source give for `CCCCC1CCC(c2nc(-c3ccccn3)no2)CC1` (stereo not given) here?
Answer: The Potency was inconclusive [activator, full curve, poor fit].

Question: For `Cc1ccccc1OCC(=O)Nc1ccc2c(c1)OCCO2`, which Potency is on record?
Answer: Its Potency is active: 3.55 µM.

Question: With `O=C(O)CN1C(=O)/C(=C\c2ccc(OC(=O)c3ccco3)cc2)SC1=S` as the compound, how does the Potency read?
Answer: The Potency was “inactive”.

Question: With `Cc1c(C(=O)Nc2ccc(Cl)cc2)c2ccccn2c1CCc1ccncc1` as the compound, how does the Potency read?
Answer: Its Potency is inconclusive [activator, partial curve].

Question: With `Cc1ccc(C(=O)NCCNC(=O)COc2ccc(Cl)cc2)cn1` as the compound, how does the Potency read?
Answer: The Potency was “inactive”.

Question: With `COC(=O)c1c(-c2ccc(OC)c(OC)c2)csc1N` as the compound, how does the Potency read?
Answer: The Potency was “inactive”.

Question: Which Potency does the source give for `Nc1nc(Nc2ccccc2F)sc1C(=O)c1ccccc1` here?
Answer: Its Potency is inconclusive [activator, partial curve, poor fit].

Question: Which Potency does the source give for `Cc1ccc2[nH]c(-c3ccccc3)cc(=O)c2c1` here?
Answer: The Potency was inconclusive [activator, single point].

Question: For `COc1ccccc1-c1coc2cc(OC(=O)N3CCOCC3)ccc2c1=O`, which Potency is on record?
Answer: The Potency was inconclusive [activator, partial curve].

Question: With `COCCN(C(=O)c1ccccc1F)c1nc(-c2ccc(OC)cc2)cs1` as the compound, how does the Potency read?
Answer: The Potency was inconclusive [activator, single point].

Question: With `O=C(O)CCc1ccc(S(=O)(=O)Nc2ccccc2C(=O)NCCc2ccccc2)cc1` as the compound, how does the Potency read?
Answer: The Potency was active: 2.24 µM.

Question: With `Cc1ccc2nc(-c3ccc(NC(=O)CN4CCN(C(=O)c5ccco5)CC4)cc3)sc2c1` as the compound, how does the Potency read?
Answer: The Potency was inconclusive [activator, single point].

Question: Which Potency does the source give for `Fc1ccccc1NC(=S)NCCc1ccccc1` here?
Answer: The Potency was inconclusive [activator, single point].

Question: For `O=C(Nc1ccc2ccccc2c1)c1ccc(Br)o1`, which Potency is on record?
Answer: Its Potency is active: 3.55 µM.

Question: For `CCOc1ccc(/C=C/C2=NNC(=O)CC2)cc1`, which Potency is on record?
Answer: Its Potency is inconclusive [activator, single point].

Question: Which Potency does the source give for `CCn1c(O)c(C=Nc2ccccc2)sc1=S` here?
Answer: The Potency was inconclusive [activator, single point].

Question: Which Potency does the source give for `COc1ccc(-n2nc3ccc(NS(C)(=O)=O)cc3n2)cc1Cl` here?
Answer: Its Potency is inconclusive [activator, single point].

Question: For `COc1ccc(C2=NNC(c3cc(Cl)cc4c3OCOC4)C2)c(O)c1` (stereo not given), which Potency is on record?
Answer: The Potency was “inactive”.

Question: For `Cc1ccc(Nc2nc3ccccc3n3cnnc23)cc1C`, which Potency is on record?
Answer: Its Potency is active: 1.12 µM.

Question: With `CC(=O)N1CCc2cc(NC(=O)c3ccc(C)cc3)ccc21` as the compound, how does the Potency read?
Answer: Its Potency is inconclusive [activator, partial curve].

Question: With `COc1ccc(OC)c(Nc2nc(NCCCN(C)C)nc(N)c2[N+](=O)[O-])c1` as the compound, how does the Potency read?
Answer: Its Potency is “inactive”.

Question: For `CC(=NCc1ccco1)c1c(C)[nH]n(-c2nc3ccccc3s2)c1=O`, which Potency is on record?
Answer: The Potency was inconclusive [activator, partial curve].

Question: For `Cc1c(C(N)=O)sc2ncn(CC(=O)N(C)C3CCCCC3)c(=O)c12`, which Potency is on record?
Answer: Its Potency is “inactive”.

Question: With `c1ccc2c(c1)Nc1ccncc1S2` as the compound, how does the Potency read?
Answer: Its Potency is “inactive”.

Question: With `O=C(COC(=O)Cn1[nH]c(=O)c2ccccc2c1=O)NNC(=O)c1ccc(Br)cc1` as the compound, how does the Potency read?
Answer: Its Potency is “inactive”.

Question: Which Potency does the source give for `CC(=O)O/N=C(\N)c1ccc(-c2csnn2)cc1` here?
Answer: The Potency was “inactive”.

Question: With `CC(OC(=O)c1ccc(Cl)cc1)C(=O)NCC1CCCCC1` (stereo not given) as the compound, how does the Potency read?
Answer: The Potency was “inactive”.

Question: With `COc1ccc(OC)c(C(=O)c2ccc(C(=O)Nc3ccc4ccccc4c3)cc2)c1` as the compound, how does the Potency read?
Answer: The Potency was “inactive”.

Question: With `Clc1cccc(N/N=C/c2ccc(N3CCOCC3)cc2)c1` as the compound, how does the Potency read?
Answer: Its Potency is inconclusive [activator, partial curve].

Question: For `COc1ccc(OCc2cc(C(=O)N(C)C(C)c3ccon3)no2)c(Cl)c1` (stereo not given), which Potency is on record?
Answer: The Potency was inconclusive [activator, partial curve].

Question: For `COc1cc(OC)c(N2CC(C(=O)Nc3cc(Cl)ccc3N3CCOCC3)CC2=O)cc1Cl` (stereo not given), which Potency is on record?
Answer: The Potency was “inactive”.

Question: With `COc1ccc(NC(=O)CCSc2ccc(F)cc2)cc1` as the compound, how does the Potency read?
Answer: Its Potency is inconclusive [activator, single point].

Question: For `CCCCn1c(-c2ccccc2)cnc1SCC(=O)NCCc1ccc(OC)c(OC)c1`, which Potency is on record?
Answer: The Potency was “inactive”.

Question: With `O=C(Nc1nncs1)c1cc2c(s1)CCC2` as the compound, how does the Potency read?
Answer: The Potency was inconclusive [activator, single point].

Question: Which Potency does the source give for `COc1ccc(C(=O)Nc2nnc(C(F)(F)F)s2)cc1` here?
Answer: The Potency was active: 1.78 µM.

Question: With `COc1ccc(C2CC(=O)c3ccccc3O2)cc1` (stereo not given) as the compound, how does the Potency read?
Answer: The Potency was inconclusive [activator, single point].

Question: With `O=C(O)c1ccc(NC(=O)c2cc3ccccc3o2)cc1` as the compound, how does the Potency read?
Answer: Its Potency is inconclusive [activator, single point].

Question: For `CC(=O)c1cccc(NC(=O)CC2CCCC2)c1`, which Potency is on record?
Answer: The Potency was inconclusive [activator, single point].

Question: For `Cc1ccc(C2/C(=C(/O)c3cnn(-c4ccccc4)c3C)C(=O)C(=O)N2CCN2CCOCC2)o1` (stereo not given), which Potency is on record?
Answer: Its Potency is active: 3.55 µM.

Question: Which Potency does the source give for `O=C(N/N=C/c1ccc(OCc2ccccc2)cc1)c1ccco1` here?
Answer: Its Potency is inconclusive [activator, partial curve].

Question: Which Potency does the source give for `Cc1nnc(SCc2cccc(CSc3nnc(C)s3)c2)s1` here?
Answer: Its Potency is inconclusive [activator, partial curve].

Question: For `Cc1ccc(NC(=O)NNS(=O)(=O)c2ccc(Br)cc2)cc1`, which Potency is on record?
Answer: The Potency was “inactive”.

Question: Which Potency does the source give for `COc1ccc(-c2csc(NC(=O)COC(=O)c3ccc(Br)o3)n2)cc1` here?
Answer: Its Potency is inconclusive [activator, single point].

Question: With `O=C(COC(=O)c1ccccc1-n1cnnn1)c1ccc(Br)cc1` as the compound, how does the Potency read?
Answer: Its Potency is “inactive”.

Question: Which Potency does the source give for `Cc1ccc(NC(=O)CSc2ncc3ccccn23)cc1C` here?
Answer: Its Potency is “inactive”.

Question: Which Potency does the source give for `COc1cccc(C(=O)O/N=C(\N)c2ccncc2)c1OC` here?
Answer: Its Potency is “inactive”.

Question: For `Cc1ccccc1C(=O)Nc1c2c(nn1C(C)(C)C)CS(=O)(=O)C2`, which Potency is on record?
Answer: Its Potency is “inactive”.

Question: Which Potency does the source give for `O=C(c1ccco1)N1CCN(C(c2ccccn2)c2nnnn2C2CCCC2)CC1` (stereo not given) here?
Answer: Its Potency is inconclusive [activator, single point].

Question: With `Cc1nc2cc(-c3ccccc3)sc2c(=O)n1N` as the compound, how does the Potency read?
Answer: Its Potency is inconclusive [activator, full curve].

Question: With `COc1ccc(C(=O)/C=C/Nc2cc(C)on2)c(OC)c1` as the compound, how does the Potency read?
Answer: Its Potency is inconclusive [activator, single point].

Question: With `CC12CCC(C(=O)Nc3nc4ccc(Br)cc4s3)(OC1=O)C2(C)C` (stereo not given) as the compound, how does the Potency read?
Answer: The Potency was inconclusive [activator, single point].

Question: Which Potency does the source give for `O=C(CSc1nnc(-c2ccccc2)c(-c2ccccc2)n1)NC1CCS(=O)(=O)C1` (stereo not given) here?
Answer: The Potency was “inactive”.

Question: With `c1ccc2nc(-c3ccncc3)ccc2c1` as the compound, how does the Potency read?
Answer: The Potency was inconclusive [activator, partial curve].

Question: With `CCOc1ccc(NC(=O)c2ccc(F)c(S(=O)(=O)N3CCN(c4ccccn4)CC3)c2)cc1` as the compound, how does the Potency read?
Answer: Its Potency is “inactive”.

Question: Which Potency does the source give for `COc1ccc(/C=N/NC(=O)c2ccc[nH]2)cc1` here?
Answer: Its Potency is active: 2.51 µM.

Question: With `Cc1cc2c(=O)n(C)c(SCC(=O)c3cc4ccccc4o3)nc2s1` as the compound, how does the Potency read?
Answer: Its Potency is “inactive”.

Question: For `CC(C)NC(=O)c1ccc(COc2ccc(C(C)(C)C)cc2)o1`, which Potency is on record?
Answer: Its Potency is inconclusive [activator, partial curve, poor fit].

Question: Which Potency does the source give for `CCOC(=O)c1ccc2c(c1)nc(COc1ccc(OC)cc1)n2CC` here?
Answer: The Potency was inconclusive [activator, single point].

Question: Which Potency does the source give for `Cc1ccc(Nc2nc3c(s2)CCC3)c(C)c1` here?
Answer: Its Potency is inconclusive [activator, single point].

Question: Which Potency does the source give for `CSc1nnc(C)c(=O)n1COC(=O)COc1ccc(Cl)cc1` here?
Answer: Its Potency is “inactive”.
